Data taken from publication PMC6764942, “TFF3 interacts with LINGO2 to regulate EGFR activation for protection against colitis and gastrointestinal helminths” (Nature Communications, 2019).
Results are given in words; binding and its absence hold for the method and conditions named. For some assays here: In cells and extracts the contact can be indirect. Some results given as binding are weak or reduced against the parent protein; the word gives no strength. For some assays here: Where a sequence is shown, tags or fusion partners need not be part of it.

Chains of the proteins cited; added tags and fusions are not shown. Residues count along the entry.
UniProt Q3URE9, residues 28-606: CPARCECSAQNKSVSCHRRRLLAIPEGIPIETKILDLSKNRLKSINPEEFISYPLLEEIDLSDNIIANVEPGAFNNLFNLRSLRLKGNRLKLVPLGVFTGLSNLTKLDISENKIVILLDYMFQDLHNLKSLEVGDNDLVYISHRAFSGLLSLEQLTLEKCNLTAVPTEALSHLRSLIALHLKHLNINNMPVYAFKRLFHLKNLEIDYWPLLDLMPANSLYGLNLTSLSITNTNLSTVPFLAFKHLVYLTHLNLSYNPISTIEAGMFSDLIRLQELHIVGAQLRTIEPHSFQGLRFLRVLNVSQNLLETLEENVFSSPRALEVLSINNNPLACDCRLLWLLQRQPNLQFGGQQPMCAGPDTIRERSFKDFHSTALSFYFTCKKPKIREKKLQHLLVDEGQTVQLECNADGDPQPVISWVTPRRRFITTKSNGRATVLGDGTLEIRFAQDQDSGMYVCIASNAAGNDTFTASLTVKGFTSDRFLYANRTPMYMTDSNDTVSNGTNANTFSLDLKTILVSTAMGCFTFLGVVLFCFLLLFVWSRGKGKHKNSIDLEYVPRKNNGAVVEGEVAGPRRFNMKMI
UniProt Q9QUN7, residues 25-784: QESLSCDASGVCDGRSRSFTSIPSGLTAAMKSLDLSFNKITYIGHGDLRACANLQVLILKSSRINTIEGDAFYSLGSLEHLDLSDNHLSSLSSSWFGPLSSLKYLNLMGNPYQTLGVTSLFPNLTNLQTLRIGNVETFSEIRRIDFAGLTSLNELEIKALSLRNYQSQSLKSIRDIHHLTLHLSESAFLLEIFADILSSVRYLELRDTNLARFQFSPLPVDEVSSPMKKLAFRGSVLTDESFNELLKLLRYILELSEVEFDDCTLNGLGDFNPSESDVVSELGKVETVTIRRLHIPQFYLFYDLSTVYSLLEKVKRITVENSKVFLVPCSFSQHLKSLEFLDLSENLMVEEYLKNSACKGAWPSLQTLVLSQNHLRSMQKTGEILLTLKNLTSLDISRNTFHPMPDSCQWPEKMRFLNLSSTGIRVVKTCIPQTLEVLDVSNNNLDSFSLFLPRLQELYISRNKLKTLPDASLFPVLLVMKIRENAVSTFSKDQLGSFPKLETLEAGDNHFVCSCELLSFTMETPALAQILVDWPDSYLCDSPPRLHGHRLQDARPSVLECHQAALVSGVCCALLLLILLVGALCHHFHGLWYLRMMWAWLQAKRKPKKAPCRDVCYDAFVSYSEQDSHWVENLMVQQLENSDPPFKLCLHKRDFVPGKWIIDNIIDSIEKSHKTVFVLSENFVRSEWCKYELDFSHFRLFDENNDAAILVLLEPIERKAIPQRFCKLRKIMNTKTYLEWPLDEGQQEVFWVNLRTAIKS
UniProt P70658: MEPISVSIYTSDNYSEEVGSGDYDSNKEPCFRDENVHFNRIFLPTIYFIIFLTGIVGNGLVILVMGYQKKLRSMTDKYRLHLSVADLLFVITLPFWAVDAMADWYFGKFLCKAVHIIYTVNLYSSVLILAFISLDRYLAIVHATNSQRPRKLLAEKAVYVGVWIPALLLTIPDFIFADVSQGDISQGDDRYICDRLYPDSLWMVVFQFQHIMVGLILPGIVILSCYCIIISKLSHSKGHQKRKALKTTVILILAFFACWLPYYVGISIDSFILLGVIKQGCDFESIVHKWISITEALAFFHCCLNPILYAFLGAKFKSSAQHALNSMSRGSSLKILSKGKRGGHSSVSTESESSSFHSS
UniProt Q7L985, residues 28-606: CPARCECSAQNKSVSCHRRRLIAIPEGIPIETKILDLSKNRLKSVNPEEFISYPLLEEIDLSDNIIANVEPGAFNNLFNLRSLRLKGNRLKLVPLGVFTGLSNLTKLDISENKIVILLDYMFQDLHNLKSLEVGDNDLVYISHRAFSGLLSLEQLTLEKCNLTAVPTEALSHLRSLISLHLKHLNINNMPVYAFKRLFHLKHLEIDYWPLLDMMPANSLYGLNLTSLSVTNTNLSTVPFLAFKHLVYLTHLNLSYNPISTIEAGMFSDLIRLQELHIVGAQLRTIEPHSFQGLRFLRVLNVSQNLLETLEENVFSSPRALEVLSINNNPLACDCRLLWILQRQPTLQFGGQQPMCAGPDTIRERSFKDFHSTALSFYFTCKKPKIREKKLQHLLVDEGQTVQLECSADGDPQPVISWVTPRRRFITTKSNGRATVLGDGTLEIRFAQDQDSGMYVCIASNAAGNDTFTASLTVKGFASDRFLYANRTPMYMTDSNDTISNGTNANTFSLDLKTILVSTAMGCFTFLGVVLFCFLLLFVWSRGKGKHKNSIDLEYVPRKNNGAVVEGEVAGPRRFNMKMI

Experiments:
LINGO2-Flag (mouse) [1] = molecular target: LINGO2-Flag (mouse) (UniProt Q3URE9); assay: co-IP; mixture of 100 ug LINGO2 lysate and 50 ug EGFR lysate incubated with media, 2 ug mIL2 or 2 ug TFF3 for two hours at 4 C, then IP of LINGO2 and blot for EGFR
LINGO2-Flag (mouse) [2] = molecular target: LINGO2-Flag (mouse) (UniProt Q3URE9); assay: co-IP; HEK293 co-transfected with LINGO2 and EGFR constructs; about 0.5 mg total protein; reciprocal IP with anti-Flag or anti-GFP, protein A agarose 2 h at 4 C; normal IgG as negative control
murine TFF3-Fc (mouse) = molecular target: T1, murine TFF3-Fc (mouse) (UniProt Q62395); assay: co-IP; at least 0.6 mg LINGO2-Flag lysate (1% digitonin, 150 mM NaCl, 1 mM MgCl2, 10 mM TrisCl pH 7.4) incubated with 10 ug TFF3-Fc or Fc overnight, precipitated with protein G agarose 2 h at 4 C; blot anti-Flag; only the target purified
T1 sequence: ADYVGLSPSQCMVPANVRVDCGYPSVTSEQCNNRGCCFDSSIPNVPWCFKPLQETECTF

EGFR-GFP (mouse) = EGFR-GFP (mouse) (UniProt Q01279); assay: co-IP; HEK293 co-transfected with LINGO2 and EGFR constructs; about 0.5 mg total protein; reciprocal IP with anti-Flag or anti-GFP, protein A agarose 2 h at 4 C; normal IgG as negative control
LINGO2-Flag (mouse) [3] = molecular target: LINGO2-Flag (mouse) (UniProt Q3URE9); assay: co-IP; same experiment as a6, for the added soluble rTFF3 (2 ug, two hours at 4 C) against LINGO2 in the lysate mixture; read out as loss of co-precipitated EGFR; only the binder purified
[4] = molecular target: TLR2-GFP on HEK293 transfectants (mouse) (UniProt Q9QUN7); assay: condition: 3 μg of Alexa Fluor 647 labeled soluble ligands; flow cytometry on cells; HEK293 transfected with GFP-labeled receptors, 24 h later incubated with PBS or 3 ug Alexa Fluor 647 labeled soluble ligand for 16 h at 4 C; double positive (GFP and AF-647) cells counted; only the binder purified
[5] = molecular target: CXCR4-GFP on HEK293 transfectants (mouse) (UniProt P70658); assay: flow cytometry on cells; HEK293 transfected with GFP-labeled receptors, 24 h later incubated with PBS or 3 ug Alexa Fluor 647 labeled soluble ligand for 16 h at 4 C; double positive (GFP and AF-647) cells counted; only the binder purified
[6] = molecular target: LINGO2, endogenous in human rectosigmoid tissue (human (endogenous in rectosigmoid biopsy tissue)) (UniProt Q7L985); assay: proximity ligation; FFPE human rectosigmoid biopsy tissue; goat anti-LINGO2 (R&D AF3679) and mouse anti-TFF3 (eBioscience); Duolink In Situ Orange; single antibody as negative control

EGFR-GFP (from UniProt Q01279 25-1210) (receptor)
binding (LINGO2-Flag (mouse) [1]): binds | binding (LINGO2-Flag (mouse) [2]): binds

LINGO2-Flag (from UniProt Q3URE9 28-606) (receptor)
binding (murine TFF3-Fc (mouse)): binds | binding (EGFR-GFP (mouse)): binds

B1: soluble rTFF3 (unlabeled) (ligand, UniProt Q62395 23-81)
chain: ADYVGLSPSQCMVPANVRVDCGYPSVTSEQCNNRGCCFDSSIPNVPWCFKPLQETECTF
binding (LINGO2-Flag (mouse) [3]): binds

B2: TFF3-647 (murine recombinant TFF3 labeled with Alexa Fluor 647) (ligand, UniProt Q62395 23-81)
chain: ADYVGLSPSQCMVPANVRVDCGYPSVTSEQCNNRGCCFDSSIPNVPWCFKPLQETECTF
modifications: Alexa Fluor 647 dye (site not stated)
binding [4]: no binding | binding [5]: binds

B3: TFF3, endogenous in human rectosigmoid tissue (protein, UniProt Q07654 22-80)
chain: EEYVGLSANQCAVPAKDRVDCGYPHVTPKECNNRGCCFDSRIPGVPWCFKPLQEAECTF
binding [6]: binds
